Molecular target: T1, GroES (E. coli, UniProt P0A6F9 1-97, DyLight 650 NHS ester on amines (for MST))
T1 sequence (looked up): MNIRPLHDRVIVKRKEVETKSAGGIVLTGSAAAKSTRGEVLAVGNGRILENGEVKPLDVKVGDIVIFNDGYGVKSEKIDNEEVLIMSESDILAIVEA
Assay: cell-based or functional assay

yield of GroEL-mediated MDH folding (native MDH 100%): ~80%
B1: GroEL (natural protein)
chain: not shown
